Measurements from PubChem BioAssay AID504332 (National Center for Advancing Translational Sciences (NCATS), 2011).
Where “and” joins values, the source holds several entries; their conditions need not be identical. Identical values can stand only once. Hit rate of the full screen: of about 350,000 compounds, about 31,000 (8.9%) were called active. The inconclusive results got no clear call from the source; some entries with a clear call stand among them for comparison. Calls follow the shape of the dose curve; as a rule, active = well fitted inhibition curve with a large enough effect; inconclusive = small, poorly fitted or top-dose-only effect; inactive = no such curve, though single readings can be large or run the other way. Potencies of inconclusive entries are doubtful fits and often do not repeat. Where a structure was tested more than once in an assay, its records may differ in their call.

biological target: Histone-lysine N-methyltransferase EHMT2 (Homo sapiens) (UniProt Q96KQ7); assay: qHTS Assay for Inhibitors of Histone Lysine Methyltransferase G9a; details: G9a H3K9 monomethylation, AlphaScreen, 2 h; activity, negative = inhibition: at 59 µM (top of the series) unless noted; also: nearly all actives have a fitted effect of over 75% in size
UniProt Q96KQ7, sequence (Q96KQ7 whole entry, looked up): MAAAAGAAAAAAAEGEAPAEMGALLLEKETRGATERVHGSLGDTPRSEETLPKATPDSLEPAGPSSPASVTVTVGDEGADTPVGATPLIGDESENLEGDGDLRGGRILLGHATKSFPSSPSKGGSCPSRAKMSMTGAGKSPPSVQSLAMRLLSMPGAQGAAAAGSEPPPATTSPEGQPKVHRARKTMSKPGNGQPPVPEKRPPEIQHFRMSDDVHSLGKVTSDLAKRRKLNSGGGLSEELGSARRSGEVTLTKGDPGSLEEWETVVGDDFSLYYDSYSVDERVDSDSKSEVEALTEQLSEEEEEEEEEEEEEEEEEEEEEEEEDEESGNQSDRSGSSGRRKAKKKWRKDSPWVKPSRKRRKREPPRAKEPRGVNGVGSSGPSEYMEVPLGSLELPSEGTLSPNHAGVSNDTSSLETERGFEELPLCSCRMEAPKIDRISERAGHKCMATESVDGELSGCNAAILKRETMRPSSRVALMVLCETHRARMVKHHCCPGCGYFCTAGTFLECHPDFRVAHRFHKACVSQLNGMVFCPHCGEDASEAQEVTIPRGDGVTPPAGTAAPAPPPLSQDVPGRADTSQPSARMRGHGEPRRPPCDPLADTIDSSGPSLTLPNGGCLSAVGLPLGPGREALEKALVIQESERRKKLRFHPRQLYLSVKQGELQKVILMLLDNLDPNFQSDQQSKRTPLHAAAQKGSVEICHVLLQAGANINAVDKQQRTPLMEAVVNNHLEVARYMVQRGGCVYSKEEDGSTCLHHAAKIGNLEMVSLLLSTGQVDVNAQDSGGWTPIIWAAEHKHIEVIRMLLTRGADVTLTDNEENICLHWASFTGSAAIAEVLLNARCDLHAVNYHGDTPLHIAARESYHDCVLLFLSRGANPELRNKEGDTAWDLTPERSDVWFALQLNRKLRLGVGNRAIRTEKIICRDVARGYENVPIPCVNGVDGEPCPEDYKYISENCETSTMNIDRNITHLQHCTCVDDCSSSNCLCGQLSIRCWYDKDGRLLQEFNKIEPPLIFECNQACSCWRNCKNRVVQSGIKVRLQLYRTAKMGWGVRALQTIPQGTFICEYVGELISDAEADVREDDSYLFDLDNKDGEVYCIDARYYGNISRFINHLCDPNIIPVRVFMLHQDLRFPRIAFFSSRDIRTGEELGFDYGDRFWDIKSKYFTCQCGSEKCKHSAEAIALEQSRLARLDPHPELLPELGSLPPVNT
Outline: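 G9a (20 nM) was preincubated 15 min with compound, then reacted 2 h at room temperature with 500 nM biotin-H3K9 peptide and 20 µM SAM. Monomethyl-H3K9 detected by AlphaScreen using anti-H3K9me1 antibody.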
% is scaled to controls: 0 for no effect and ±100 for the full control effect; potency is read from the fitted curve at half-maximal effect; tags tell the direction and shape of the fitted curve.

Compound	Potency	activity, negative = inhibition
Oc1cccc2nc3ccccc3nc12	active: 28.2 µM	
COc1cc(/C=C2/C(=O)N(c3ccccc3)N=C2C)ccc1OS(=O)(=O)c1ccccc1	active: 35.5 µM	
Cc1cc(N2CCCCC2)ccc1C=C1C(=O)N(C)C(=S)N(C)C1=O	active: 15.8 µM	
CCN1C[C@]2(C)CC[C@H](O)[C@@]34[C@@H]5CC6[C@@H](OC)C[C@@](O)([C@@H]5[C@@H]6O)[C@H](C[C@@H]23)[C@H]14	inactive	
Cc1ccc(S(=O)(=O)NC(Cc2cnc[nH]2)C(=O)O)cc1 (stereo not given)	inconclusive: 89.1 µM [inhibitor, single point]	
COc1cc(OC)c(OC)cc1CNCCc1ccc(OC)c(OC)c1	inconclusive: 3.55 µM [inhibitor, single point]	
O=C(O)C1CSC(c2cccnc2)N1 (stereo not given)	active: 3.55 µM	
CC(C)(C)c1cc([N+](=O)[O-])cc(C(C)(C)C)c1O	inactive	
C=CCN1C(=O)NC(=O)/C(=C/c2ccc(N(C)C)c(Br)c2)C1=O	active: 15.8 µM	
Cc1ccccc1-c1nc(CS(=O)CC(=O)N2CCN(c3cc(Cl)ccc3C)CC2)c(C)o1 (stereo not given)	active: 14.1 µM	
CN1OC[C@@H]2COc3ccc4ccccc4c3[C@@H]21	inactive	
CCCCCCCCCCCCCC(=O)O[C@@H]1[C@@H](C)[C@@]2(O)[C@@H](C=C(CO)C[C@@]3(O)C(=O)C(C)=C[C@@H]23)C2C(C)(C)[C@@]21OC(C)=O (stereo not given in full)	active: 7.94 µM	
Cc1ccccc1-n1c(O)c(/C=N/c2nccs2)c(=O)[nH]c1=O	inactive	
CN1CCC2(CC1)N=C(c1ccc(F)cc1)C(=S)N2	active: 25.1 µM	
CC1CN2c3ccc([N+](=O)[O-])cc3CC3(C(=O)N(C)C(=O)N(C)C3=O)C2C(C)O1 (stereo not given)	inconclusive: 89.1 µM [inhibitor, partial curve, poor fit]	
Nc1ccccc1C(=O)OCC(=O)c1ccc2c(c1)OCCO2	inconclusive: 39.8 µM [inhibitor, partial curve, poor fit]	
O=C1NC(=O)C(=Cc2ccc3c(c2)OCO3)C(=O)N1	active: 50.1 µM	
CC(=NCCN1CCCCC1)c1c(O)[nH]c(=O)[nH]c1=O		inconclusive: -101% [inhibitor]
Cc1cc(/C=C2\C(=O)NC(=O)N(c3ccc(Br)cc3)C2=O)c(C)n1-c1cc(C(=O)O)cc(C(=O)O)c1	active: 20 µM	
CN(C)c1ccc(NC(=O)CN2C(=O)CN=C(c3ccccc3)c3cc(Cl)ccc32)cc1	active: 39.8 µM	
C[C@]12CCC(OC(=O)CCC(=O)O)CC1=CCC1C2CC[C@]2(C)C(=O)CCC12 (stereo not given in full)	inconclusive: 79.4 µM [inhibitor, single point]	
Cc1cc(C)n2c(Br)c(CN3CC4CC(C3)c3cccc(=O)n3C4)nc2n1 (stereo not given)	inconclusive: 89.1 µM [inhibitor, single point]	
CN(Cc1ccccc1)Cc1ccccc1OC(=O)N(C)C	active: 44.7 µM	
N#CC[N+]1(CCCNP2(=O)C=C(c3ccccc3)OC(c3ccccc3)=C2)CCOCC1	inconclusive: 50.1 µM [inhibitor, partial curve, poor fit]	

Compound	Potency	activity, negative = inhibition
COC(=O)C1=Nc2ccccc2/C1=C\c1c(O)n(C)c(=O)n(C)c1=O	inconclusive: 56.2 µM [inhibitor, partial curve, poor fit]	
CCOC(=O)c1ccc(N2C(=O)CC(N3CCC(C#N)(c4ccccc4)CC3)C2=O)cc1 (stereo not given)		inconclusive: -81.1% [inhibitor]
COC(=O)c1ccccc1N=Cc1c(O)[nH]c(=O)[nH]c1=O	inconclusive: 79.4 µM [inhibitor, single point]	
c1ccc(C2OCCN3CCCCC23)cc1 (stereo not given)	inconclusive: 14.1 µM [inhibitor, partial curve, poor fit]	
Cc1[nH]ccc2c1[nH]c1cc(=O)ccc12	active: 50.1 µM	
CC(=O)Oc1ccccc1C(=O)Nc1ncc([N+](=O)[O-])s1	inconclusive: 11.2 µM [inhibitor, partial curve, poor fit] and inconclusive: 39.8 µM [inhibitor, partial curve, poor fit]	
O=C1NC(=O)N(Cc2ccco2)C(=O)/C1=C\c1cccn1CCOc1ccccc1	inconclusive: 50.1 µM [inhibitor, partial curve, poor fit]	
O=C1NC(=O)N(CCC2=CCCCC2)C(=O)/C1=C/c1cccs1	active: 14.1 µM	
CC1(C)CC(CCNCc2ccc3c(c2)OCO3)(Cc2ccccc2)CCO1 (stereo not given)		inactive: -1.85% [at 12.7 µM]
C=CCn1c(O)c(/C=N/N2CCOCC2)c(=O)[nH]c1=S	inconclusive: 15.8 µM [inhibitor, partial curve, poor fit]	
CC(C)Oc1cccc(C(=O)C2CCCN(C3CCOCC3)C2)c1 (stereo not given)	inconclusive: 31.6 µM [inhibitor, partial curve, poor fit]	
NC(=O)C1CCN(/C=C2\C(=O)NC(=O)N(Cc3ccco3)C2=O)CC1		inconclusive: -98.7% [inhibitor]
C=CCn1c(O)c(C(C)=Nc2ccc(C(=O)OCC)cc2)c(=O)[nH]c1=O	inconclusive: 1.12 µM [inhibitor, full curve, poor fit]	
O=C(COc1ccccc1)NCCc1cnc[nH]1	inactive	
Cc1ccccc1-n1c(-c2ccc([N+](=O)[O-])cc2)nc2ccccc2c1=O	active: 70.8 µM	
O=C(Nc1ccc(Cl)cc1C(=O)c1ccccc1Cl)c1ccco1		inactive: 10.1% [at 12.7 µM]
Cc1ccc2c(c1)C1CN(C)CCC1N2C(=O)c1cn(-c2ccccc2)nc1-c1ccccc1 (stereo not given)	inconclusive: 79.4 µM [inhibitor, partial curve, poor fit]	
COc1cccc(CNCCc2c[nH]c3ccccc23)c1		inactive: 20.5% [at 2.33 µM]
N=C1c2ccccc2CN1c1cccc([N+](=O)[O-])c1	inconclusive: 79.4 µM [inhibitor, single point]	
COc1ccc(NC(=O)CCn2cc(C)c3ccccc32)cc1	inconclusive: 50.1 µM [inhibitor, partial curve, poor fit]	
CC(C)(O)[C@@H]1C2OC(=O)[C@@H]1[C@]1(O)C[C@H]3O[C@]34C(=O)O[C@H]2[C@]14C (tested in a mixture with another compound)	inactive	
Fc1ccc2c(c1)nnn2C1CCN(Cc2nnnn2C2CCCCC2)CC1	inconclusive: 56.2 µM [inhibitor, partial curve, poor fit]	
CCOc1ccccc1NC(=O)c1cccn(Cc2ccccc2C)c1=O	inactive	
CC[C@@]1(O)C(=O)OCc2c1cc1n(c2=O)Cc2cc3c(NC(=O)CN)cccc3nc2-1	inconclusive: 31.6 µM [inhibitor, full curve, poor fit]	

Compound	Potency	activity, negative = inhibition
Nc1c2c(nc3sc4c(c13)CCCCC4)CCCC2	inconclusive: 35.5 µM [inhibitor, single point]	
CN(C)C1C(=O)C(C(N)=O)C(=O)C2(O)C(=O)C3C(=O)c4c(O)cccc4C(C)(O)C3C(O)C12 (stereo not given)	active: 3.55 µM	
C=Cn1ccnc1P(O)(=S)c1nc(C)c(CCOC(C)=O)s1 (stereo not given)	inconclusive: 39.8 µM [inhibitor, partial curve, poor fit]	
C[N+](C)(C)CCOC(=O)C(O)(c1ccccc1)c1ccccc1	inconclusive: 1.58 µM [inhibitor, partial curve, poor fit]	
Oc1c(Cl)cc(Cl)cc1CN1CCN(Cc2ccccc2)CC1	inconclusive: 39.8 µM [inhibitor, single point]	
CCON=O		inactive: 8% [at 12.7 µM]
O=C1CCN(C(=O)C(Cl)Cl)N1	inconclusive: 79.4 µM [inhibitor, partial curve, poor fit]	
C=CCn1c(O)c(C(CC)=Nc2ccc(N(CC)CC)cc2)c(=O)[nH]c1=O	inconclusive: 3.55 µM [inhibitor, partial curve, poor fit]	
COc1ccc(OCC(=O)N2CCN(C/C=C/c3ccccc3)CC2)cc1	inactive	
Cc1cc(C=C2C(=O)N(C)C(=O)N(C)C2=O)c(C)n1-c1ccccc1	active: 7.94 µM	
NS(=O)(=O)c1ccc(-c2ccc(C=C3C(=O)NC(=S)NC3=O)o2)cc1	active: 2.51 µM	
S=c1[nH]nc(C2CC2)n1Cc1ccccc1	active: 6.31 µM	
CCCCNC(=O)Oc1c(Br)cc2sc(=O)oc2c1Br	active: 8.91 µM	
Cc1ccc(OCC(=O)NS(=O)(=O)c2ccccc2)cc1	inconclusive: 50.1 µM [inhibitor, partial curve]	
CC1(C)COC(Nc2ccc(Cl)cc2)=N1	inconclusive: 79.4 µM [inhibitor, partial curve]	
CC1CC(C)CN(CC(=O)c2ccc(OC(F)F)cc2)C1 (stereo not given)	inconclusive: 10 µM [inhibitor, partial curve, poor fit]	
O=C1NC(=O)C(Cc2cccs2)C(=O)N1		inconclusive: -94.2% [inhibitor]
N#Cc1c(Cl)nc(Cl)c2c1CCN(Cc1ccccc1)C2	inconclusive: 6.31 µM [inhibitor, single point]	
Cc1cccc(N2C(=O)NC(=O)/C(=C\c3cnn(-c4ccccc4)c3)C2=O)c1	inconclusive: 3.55 µM [inhibitor, single point]	
CN1CCN(c2cc(N3CCNCC3)ccc2[N+](=O)[O-])CC1	inactive	
COc1ccc(CC(=O)Nc2ccc3c(C(F)(F)F)cc(=O)oc3c2)cc1OC	inactive	
CC/C(=C\C=C\[C@@H]1C=C[C@@H]2CCC[C@H]2[C@@H]1C(=O)c1ccc[nH]1)[C@@H]1O[C@@H]([C@@H](C)C(=O)O)CC[C@@H]1C	inconclusive: 39.8 µM [inhibitor, single point]	
